Assay results published in PubChem BioAssay AID1508624 (National Center for Advancing Translational Sciences (NCATS), 2021).
The whole screen tested about 48,000 compounds, of which about 120 (0.25%) were called active. About 4% were inconclusive and are not listed. Calls come from the whole dose curve; as a rule, active = well fitted activation curve with a large enough effect; inconclusive = small, poorly fitted or top-dose-only effect, or another doubt; inactive = no such curve, though single readings can be large or run the other way. This is one part of the list.

Test: Primary qHTS for Identification of Small Molecule Activators of Huntingtin-Antisense Promoter Activity; note: nearly all actives have a fitted effect of over 55% in size
Conditions: HEK293 HTT-AS promoter firefly luciferase reporter, 24 h; series mostly up to 57.5 µM; activity change, positive = activation: at the top concentration
Procedure, shortened: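 HEK293 luciferase promoter-reporter cells (2,500/well) plated 24 h, then compounds added at up to 57.5 uM final for 24 h at 37 °C. Firefly luminescence by Dual-Glo, normalized to vehicle (0%) and zero RLU (-100%).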

Activity change, positive = activation, inactive:
CC(=O)c1c(C)n(-c2ccc(C)cc2)c2ccc(OC(=O)COc3ccccc3)cc12 -32.5%, Cc1ccc(C2CC(=O)n3nc(-c4cccc(C)c4)nc3S2)cc1 (stereo not drawn) 0.55%, CN(C)c1ccc(CNC(=O)C2CCN(S(=O)(=O)c3ccc4[nH]c(=O)ccc4c3)CC2)cc1 -10.1%, CC(C)C(=O)Nc1nnc(SCc2cc(=O)n3ccccc3n2)s1 -15.1%, COc1cc(-c2ccno2)ccc1S(=O)(=O)N1CCN(c2ccccc2)CC1 -19.8%, Cc1ccc(Cc2nc3ccccc3nc2SCC(=O)NCc2ccccc2Cl)cc1 -7.86%, CCOC(=O)c1c(NC(=O)COc2ccc(C(C)(C)C)cc2)sc2c1CCCC2 3.11%, CCc1cccc(CC)c1NC(=O)Cn1nnc2sc3c(c2c1=O)CCCC3 -17.5%, Cc1ccc(NC(=O)c2c(C)nn(-c3ccccc3)c2-n2cccc2)c(Cl)c1 -21.9%, CCOc1cccc(C(=O)N(Cc2ccc(F)cc2)Cc2ccco2)c1 -34.4%, Cc1ccc(N2C(=O)CCSC23C(=O)N(Cc2ccc(F)cc2)c2ccccc23)cc1 (stereo not drawn) -50.5%, Cc1ccc(N2C(=O)CS(=O)(=O)C23C(=O)N(Cc2ccc(Cl)cc2)c2ccccc23)cc1C (stereo not drawn) -21.3%, COCCn1c(SCC(=O)c2ccc(F)cc2)nc2cc(C(=O)NC3CCCC3)ccc2c1=O 3.44%, COc1ccc(Cl)cc1NC(=O)C1CCN(S(=O)(=O)c2ccc(F)cc2)CC1 -27.9%, COc1ccc(C(=O)N(c2ccc(C)cc2)S(=O)(=O)c2ccc(C)cc2)cc1 -28.8%, O=C1CC(c2ccc(F)cc2F)c2cc3c(cc2N1)OCO3 (stereo not drawn) -4.34%, COc1ccc(OC)c(NC(=O)Cn2c(=O)n(-c3ccc(Cl)cc3)c(=O)c3c(C)c(C)sc32)c1 12.9%, CC1CCN(C(=O)CSc2nnc(NC(=O)Nc3ccccc3)s2)CC1 -33.3%, Cc1ccc2c(c1)N(C(=O)CCC(=O)NCc1cccs1)CC(C)O2 (stereo not drawn) 2.41%, COC(=O)c1ccccc1NC(=O)Cn1c(CCC(=O)O)ccc1-c1ccc(C)cc1 -15.7%, Cc1cccc(CC(=O)Nc2c(C(=O)Nc3cccc(F)c3)oc3ccccc23)c1 10.6%, CCOC(=O)C1CCN(C(=O)Cn2ncc3c4ccccc4n(Cc4ccccc4)c3c2=O)CC1 -19.7%, CCOC(=O)c1c(C)[nH]c(C)c1S(=O)(=O)N(C)CC(=O)N1CCN(c2cccc(Cl)c2)CC1 -27.1%, Cn1c(=O)c2c(nc(N3CCOCC3)n2Cc2ccccc2)n(C)c1=O -2.18%, Cc1cccc(C)c1NC(=O)Cn1cc(S(=O)(=O)Cc2ccc(F)cc2)c2ccccc21 -25.4%, COc1ccc(C(=O)Nc2nnc(SCc3cc(=O)n4cc(Cl)ccc4n3)s2)cc1 17.3%, Cc1ccc(C(=O)c2cn(Cc3c(F)cccc3Cl)c3nc(C)ccc3c2=O)cc1 -22.7%, CCNc1sc(S(C)(=O)=O)nc1S(=O)(=O)c1ccc(C)cc1 -21.7%, Cc1ccc(Cn2c(=O)n(Cc3ccccc3Cl)c(=O)c3cccnc32)cc1 -14.2%, Clc1cccc(-n2ncc3c(N4CCCCCC4)ncnc32)c1 -37.5%, Cn1c(=O)n(C)c2cc(N3CCCC3)c(NC(=O)Nc3ccccc3)cc21 3.7%, Cc1cc(C(=O)N2CCN(c3cc(Cl)ccc3C)CC2)c2c(C)nn(-c3ccccc3)c2n1 -23.1%, CCc1ccc(NC(=O)CCNC(=O)Cn2cnc3ccccc3c2=O)cc1 8.76% [at 11.5 µM, percent change from vehicle, -100% = no light], Cc1ccc(NC(=O)Cn2ncn3c(cc4ccccc43)c2=O)cc1C -17.2%, COC(=O)c1ccccc1NC(=O)Cn1c(=O)n(CCCCC(=O)NCc2ccc3c(c2)OCO3)c(=O)c2ccccc21 -7.65%, COc1cc(OC)c(NC(=O)c2c(C)oc3ncnc(N4CCCCC4)c23)cc1Cl -2.18%, Cc1ccc(N2CCN(c3nc4ccccc4c4nnc(C)n34)CC2)c(C)c1 -13.6%, O=C1Cc2cc(S(=O)(=O)N3CCCCC3)cc3c2N1CCC3 -4.34%, Cc1ccc(N2CC(NC(=O)Cc3ccc(F)cc3)CC2=O)cc1 (stereo not drawn) -8.27%, Cc1cccc(CSc2nc(=O)c3c(n2C)NC(=O)CC3c2cccc(O)c2)c1 (stereo not drawn) -5.08%, Cc1ccc2c(c1)sc1nc(-c3cc4cc(Cl)ccc4oc3=O)cn12 -19.6%, COc1ccccc1NC(=O)Cn1c(=O)n(-c2cccc(Cl)c2)c(=O)c2sc3ccccc3c21 -13.5%, COc1cc2[nH]c(=O)n(Cc3ccc(C(=O)NCc4ccc(C)cc4)cc3)c(=O)c2cc1OC -17%, O=C(Cn1c(=O)n(Cc2ccc(C(=O)NCc3ccc4c(c3)OCO4)cc2)c(=O)c2ccccc21)Nc1cccc(Cl)c1 -13.3%, Cc1cnc(NC(=O)Nc2cc(Br)c(C)cc2OC[C@@H]2CNCCO2)cn1 -24.7%, CC1=C(C(=O)Nc2cccc(C(F)(F)F)c2)C2(CCCCCC2)OC1=O -32.1%, CCc1ccc(C2CC(=O)c3c([nH]c(C(=O)OCc4ccc(C)cc4)c3C)C2)cc1 (stereo not drawn) -19.2%, CCC(C(=O)NCc1ccc2c(c1)CCN2C(=O)c1ccc(F)cc1)c1ccccc1 (stereo not drawn) 10.8%, CCc1nc2ccc(C(=O)NCCc3ccc(OC)cc3OC)cc2nc1CC -45.5%, O=C(NCCc1ccc(Cl)cc1)c1ccc(CS(=O)(=O)Cc2ccc(Cl)cc2)o1 -6.09%, CCOC(=O)c1cc(-c2ccc(C)cc2)n(CCC(=O)Nc2cc(Cl)ccc2C)c1C -4.34%, CC(=O)c1cc(-c2ccccc2)n(CCC(=O)Nc2nc3c(C)cccc3s2)c1C -15%, CCOc1ccc(CCNC(=O)c2cc(Nc3ccc(C)cc3C)nc3ccccc23)cc1OCC 0.176%, CC1CCN(S(=O)(=O)c2ccc3[nH]cc(C(=O)NCc4ccc(F)cc4)c(=O)c3c2)CC1 -9.77%, Cc1c(C(=O)Nc2ccc(N3C[C@@H](C)O[C@@H](C)C3)nc2)cccc1-c1ccc(OC(F)(F)F)cc1 4.22%, COc1ccc(OC)c(S(=O)(=O)NCc2ccc3c(c2)CCN3C(=O)c2cccc(C)c2)c1 -38.2%, Cc1cccc(N2C(=O)N(Cc3ccc(C(C)(C)C)cc3)c3ccccc3S2(=O)=O)c1 -28.9%, CCCOCc1cc(CN2CCN(c3ccccc3OC)CC2)c(O)c2ncccc12 -34.2%, CCOC(=O)c1c(NC(=O)C(C)Sc2cn(CCNC(=O)c3ccc(OC)cc3)c3ccccc23)sc2c1CCC2 (stereo not drawn) -49.7%, Cc1ccc(CSCCNC(=O)CN(c2cccc(C)c2C)S(=O)(=O)c2ccccc2)cc1 -39.5%, O=C(NCc1ccc(Cl)cc1)c1cnc(N2CCOCC2)c2ccccc12 -29.2%, COc1ccccc1NC(=O)C1=C(C)Nc2nc(SCC(=O)c3ccc(C)cc3)nn2C1c1ccc(F)cc1 (stereo not drawn) -0.203%, CC1CCCN(S(=O)(=O)c2cc(C(=O)NCCc3ccccc3)n(C)c2)C1 (stereo not drawn) -15.9%, COCCCOc1ccnc(CS(=O)c2nc3ccccc3[nH]2)c1C (stereo not drawn), COc1ccc(CNC(=O)c2ccc3c(c2)CCN3S(=O)(=O)c2ccccc2)cc1 -18.4%, Cc1ccccc1CNC(=O)c1ccc(Cn2c(SCc3ccccc3)nc3cccnc32)cc1 5.08%, CC(C)CCn1c(=O)c2sccc2n2c(CCCC(=O)Nc3ccc(C(C)C)cc3)nnc12 -8.82%, COc1ccc(N2CCN(c3nc4ccccc4n4c(C)nnc34)CC2)cc1 -7.67%, CCOC(=O)CC(NS(=O)(=O)c1cc(-c2cc(C)no2)ccc1C)c1ccc(C)cc1 (stereo not drawn) -23.7%, Nc1cc(C(F)(F)F)c(-c2cc(N3CCOCC3)nc(N3CCOCC3)n2)cn1 -37.8%, CCOc1ccc(C(=O)Nc2ccc3nc4c(c(Nc5ccccc5OC)c3c2)CCCC4)cc1 -42.9%, CCOc1ccc2nc(NC(=O)c3nc(SCc4ccc(C)cc4)ncc3Cl)sc2c1 13.2%, CC(C)COc1ccc(C(=O)N2CCC(c3nc4ccccc4s3)CC2)cc1 -14.4%, Cc1ccc2occ(CC(=O)Nc3c(C(=O)Nc4ccc(Cl)cc4)oc4ccccc34)c2c1 9.52%, O=C(CC1N=C2c3ccccc3N=C(SCC(=O)Nc3ccccc3F)N2C1=O)NCc1ccc2c(c1)OCO2 (stereo not drawn) -1.47%, Cc1cccc(C)c1NC(=O)CN(C)S(=O)(=O)c1ccc2[nH]c3c(c2c1)CCCC3 -37.9%, CN(C(=O)CSc1nc2ccccc2[nH]1)c1ccc(F)cc1 9.49%, Cc1ccc(CSc2nncn3c2cc2sccc23)cc1 -4.15%, N#Cc1ccccc1NC(=O)C(=O)NCC(c1cccnc1)N1CCc2ccccc21 (stereo not drawn) -17.7%, O=C(Nc1cc(F)ccc1F)c1cnn2c(C(F)F)cc(-c3ccccc3)nc12 -0.086%, COc1cc(OC)c(NC(=O)C(C)n2nc(-c3ccc(C)cc3)c3c(c2=O)CCCC3)cc1Cl (stereo not drawn) -35.3%, COC(=O)c1ccc(NC(=O)CSc2nc3cc4ccccc4cc3[nH]2)cc1 -8.74%, CC(C)NNC(=O)c1ccncc1 -2.41%, Cc1ccc(NC(=O)C2CCCN(c3ncnc4onc(C)c34)C2)cc1Cl (stereo not drawn) -24.3%, O=C(c1ccccc1)c1ccc2nc(N3CCN(c4ccc(F)cc4)CC3)c3nncn3c2c1 -4.47%, Cc1ccc(S(=O)(=O)c2nnn3c2nc(N2CCN(c4cccc(C)c4C)CC2)c2ccccc23)cc1C -8.6%, COc1ccccc1-c1cc2nc(C)c(CCC(=O)NC3CCCCC3)c(C)n2n1 -37.5%, Cc1ccc(-c2nc(CNC(=O)NC3CCCCC3)c(C)o2)cc1 -11.1%, CC(=O)c1cccc(NC(=O)Nc2cc3c(cc2N2CCCC2)n(C)c(=O)n3C)c1 -15%, CCc1ccc(C(=O)Nc2cccc(-c3nc4cc(C(C)C)ccc4o3)c2)cc1 6.53%, Cc1ccc(Cl)cc1NC(=O)c1ccc2nc(CCc3ccccc3)oc2c1 -12.5%, CCn1cc(C(=O)NCc2ccccc2Cl)c(=O)c2cc(S(=O)(=O)N3CCCCCC3)ccc21 0.159%, CCOc1ccc(Nc2oc(-c3ccc(COc4ccc(C)cc4)o3)nc2C#N)cc1 -13.3%
